Several values for one entry are separate records, joined by “and”; a condition that tells them apart may be missing. Identical values can stand only once. Counter-ions that a name gives are not always drawn. In all, about 1,800 compounds went through this assay and about 50 (3%) showed activity. Some of the results follow.
These compounds were tested on mouse p16Ink4a+/- lung fibroblasts (INKBRITE, bleomycin-injured) (assay: percentage of GFP+ (p16Ink4a+) fibroblasts among all cells in well; higher = less depletion of p16Ink4a+ cells, active = 20 or less). Details: 1 µM; 3 days.
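Also: fibroblasts sorted 14 days after bleomycin, GFP+ and GFP− mixed 1:1 in 384-well plates (GFP− as in-well control), imaged after Hoechst and NucView530 staining, reference wells lacked compound.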

For COc1ccc(-c2nc3cc(C4=NNC(=O)CC4C)ccc3[nH]2)cc1 (stereo not drawn) [Pimobendan], which “percentage of GFP+” value is on record?
Its value is inactive: 40.4%.

How did the “percentage of GFP+” value turn out when NC(=O)c1ccc(-c2nc(-c3ccc4c(c3)OCO4)c(-c3ccccn3)[nH]2)cc1 was run?
Its value is inactive: 44.6%.

Which “percentage of GFP+” value does the source give for CC1(C)S[C@@H]2[C@H](NC(=O)[C@H](N)c3ccc(O)cc3)C(=O)N2[C@H]1C(=O)O [Amoxicillin] here?
The value was inactive: 43.1% and inactive: 47.4%.

How did the “percentage of GFP+” value turn out when O=C(COc1ccc(C(=O)c2ccccc2)cc1)NC1CCN(Cc2ccccc2)CC1 [AdipoRon] was run?
The value was inactive: 49.5%.

How did the “percentage of GFP+” value turn out when CNC(=O)c1cc(COc2nnc(Nc3ccc(Cl)cc3)c3ccoc23)ccn1 [Telatinib] was run?
Its value is inactive: 45.2%.

O=C1NC(=O)C(c2ccccc2)(c2ccccc2)N1 [Phenytoin] was tested. Which “percentage of GFP+” value did it give?
Its value is inactive: 37.6% and inactive: 38.8%.

For CCN(Cc1ccncc1)C(=O)C(CO)c1ccccc1 (stereo not drawn) [Tropicamide], which “percentage of GFP+” value is on record?
Its value is inactive: 49.3%.

Which “percentage of GFP+” value does the source give for COc1c(N2C[C@@H]3CCCN[C@@H]3C2)c(F)cc2c(=O)c(C(=O)O)cn(C3CC3)c12 [Moxifloxacin] here?
The value was inactive: 48.2%.

Which “percentage of GFP+” value does the source give for Cc1cc(Nc2cc(CN3CCOCC3)c3nc(C)c(Cc4ccc(Cl)cc4F)n3n2)[nH]n1 here?
The value was inactive: 43.7%.

O=C(/C=C/c1cccc(S(=O)(=O)Nc2ccccc2)c1)NO [Belinostat] was tested. Which “percentage of GFP+” value did it give?
Its value is active: 15.9%.

For CN(C/C=C/C#CC(C)(C)C)Cc1cccc2ccccc12 [Terbinafine, Terbinafine Hydrochloride], which “percentage of GFP+” value is on record?
Its value is inactive: 45.5% and inactive: 36.2%.

For C=CC(=O)Nc1cccc(Oc2nc(Nc3ccc(N4CCN(C)CC4)cc3OC)ncc2Cl)c1, which “percentage of GFP+” value is on record?
The value was inactive: 47.1%.

Which “percentage of GFP+” value does the source give for Cc1ccc(Sc2cncc3sc(C(N)=O)cc23)cc1 here?
The value was inactive: 30.6%.

With c1ccc2c(c1)CCCC2C1=NCCN1 (stereo not drawn) [Tetryzoline] as the compound, how does the “percentage of GFP+” value read?
Its value is inactive: 41.8%.

Which “percentage of GFP+” value does the source give for CCCCCCCCCCCC1=C(O)C(O)=CC(=O)C1=O [Embelin] here?
Its value is inactive: 51.4%.

For CN(C)CCN1C(=O)c2cccc3cc(N)cc(c23)C1=O [Amonafide], which “percentage of GFP+” value is on record?
The value was inactive: 22.8%.

How did the “percentage of GFP+” value turn out when Oc1ncnc2[nH]ncc12 [Allopurinol] was run?
Its value is inactive: 49.8%.

How did the “percentage of GFP+” value turn out when CC1CCc2cc(F)cc3c(=O)c(C(=O)O)cn1c23 (stereo not drawn) [Flumequine] was run?
The value was inactive: 50.5%.

CC(C)N(CCCNC(=O)Nc1ccc(C(C)(C)C)cc1)C[C@H]1O[C@@H](n2cc(Br)c3c(N)ncnc32)[C@H](O)[C@@H]1O was tested. Which “percentage of GFP+” value did it give?
The value was inactive: 46.1%.

C[C@@H]1CCO[C@H]2Cn3cc(C(=O)NCc4ccc(F)cc4F)c(=O)c(O)c3C(=O)N12 [Dolutegravir] was tested. Which “percentage of GFP+” value did it give?
Its value is inactive: 45.3%.

With COc1c2occc2cc2ccc(=O)oc12 [Methoxsalen] as the compound, how does the “percentage of GFP+” value read?
Its value is inactive: 50.4%.

Which “percentage of GFP+” value does the source give for N#CC[C@@H](C1CCCC1)n1cc(-c2ncnc3[nH]ccc23)cn1 [S-Ruxolitinib] here?
The value was inactive: 47.4%.

With Cc1ccc(S(=O)(=O)c2ccc([N+](=O)[O-])o2)cc1 as the compound, how does the “percentage of GFP+” value read?
Its value is inactive: 26.1%.

With CN1CCc2nc(C(=O)N[C@@H]3C[C@@H](C(=O)N(C)C)CC[C@@H]3NC(=O)C(=O)Nc3ccc(Cl)cn3)sc2C1 [Edoxaban] as the compound, how does the “percentage of GFP+” value read?
The value was inactive: 45.7%.

How did the “percentage of GFP+” value turn out when CO[C@H]1C(=O)[C@]2(C)[C@@H](OC)C[C@H]3OC[C@@]3(OC(C)=O)[C@H]2[C@H](OC(=O)c2ccccc2)[C@]2(O)C[C@H](OC(=O)[C@H](O)[C@@H](NC(=O)OC(C)(C)C)c3ccccc3)C(C)=C1C2(C)C [Cabazitaxel] was run?
Its value is inactive: 37.8%.

With CCO/C(O)=C1\C(C)=NC(C)=C(C(=O)OC)C1c1cccc([N+](=O)[O-])c1 (stereo not drawn) [Nitrendipine] as the compound, how does the “percentage of GFP+” value read?
The value was inactive: 39.9%.

How did the “percentage of GFP+” value turn out when O=C(O)CC[C@H]1CC[C@@](c2cc(F)ccc2F)(S(=O)(=O)c2ccc(Cl)cc2)CC1 was run?
Its value is inactive: 47.5%.

With O=C(O)[C@H](Cc1c[nH]c2ccccc12)N1C(=O)c2ccccc2C1=O as the compound, how does the “percentage of GFP+” value read?
Its value is inactive: 38.7%.

For CN1CCN(C2=Nc3ccccc3Oc3ccc(Cl)cc32)CC1 [Loxapine], which “percentage of GFP+” value is on record?
The value was inactive: 51.2%.

Which “percentage of GFP+” value does the source give for COc1ccc(Cn2ccc3ccc(C(=O)NO)cc32)cc1 here?
The value was inactive: 47.2%.

With COc1cc(Nc2ncc3c(n2)-c2ccc(Cl)cc2C(c2c(F)cccc2OC)=NC3)ccc1C(=O)O [Alisertib] as the compound, how does the “percentage of GFP+” value read?
The value was inactive: 35.8%.

Which “percentage of GFP+” value does the source give for NC(=S)N/N=C/c1ncccc1N [Triapine] here?
The value was active: 17.4%.

How did the “percentage of GFP+” value turn out when COc1cc(C)c(/C=C/C(C)=C/C=C/C(C)=C/C(=O)O)c(C)c1C [Acitretin] was run?
The value was inactive: 33.2%.

How did the “percentage of GFP+” value turn out when CCCCCCCCCCCCc1ccc(S(=O)(=O)Nc2nncs2)cc1 was run?
The value was inactive: 45.7%.

With CC(=O)Nc1ccccc1 [Acetanilide] as the compound, how does the “percentage of GFP+” value read?
The value was inactive: 40.8%.

With CN1CCC[C@@H]1CCO[C@](C)(c1ccccc1)c1ccc(Cl)cc1 [Clemastine, Clemastine Fumarate] as the compound, how does the “percentage of GFP+” value read?
Its value is inactive: 44.8%.

COc1ccc(CN2CCN(C(c3ccc(F)cc3)c3ccc(F)cc3)CC2)c(OC)c1OC [Lomerizine, Lomerizine Dihydrochloride] was tested. Which “percentage of GFP+” value did it give?
Its value is inactive: 56.3%.

How did the “percentage of GFP+” value turn out when COc1c(C)c(C(=O)c2ccc(N)c(C(=O)O)c2)n2ccccc12 was run?
Its value is inactive: 39%.

For CN/C(=C\[N+](=O)[O-])NCCSCc1ccc(CN(C)C)o1 [Ranitidine], which “percentage of GFP+” value is on record?
Its value is inactive: 29.8%.

How did the “percentage of GFP+” value turn out when O=C(CCc1ccc(O)cc1)c1c(O)cc(O)cc1O[C@@H]1O[C@H](CO)[C@@H](O)[C@H](O)[C@H]1O [Phloridzin] was run?
Its value is inactive: 36.4%.

How did the “percentage of GFP+” value turn out when Cc1c(Cc2ccc3ccccc3n2)c2cc(F)ccc2n1CC(=O)O was run?
Its value is inactive: 45.5%.

How did the “percentage of GFP+” value turn out when COc1cccc2cc(-c3nc([C@H]4CC[C@H](C(=O)O)CC4)n4ncnc(N)c34)[nH]c12 was run?
The value was inactive: 29.7%.

Which “percentage of GFP+” value does the source give for CC(C)(C)n1nc(-c2ccc(Cl)cc2)c2c(N)ncnc21 here?
Its value is inactive: 42.6%.

For CCOC(=O)c1ccc(C#Cc2ccc3c(c2)C(C)(C)CCS3)nc1 [Tazarotene], which “percentage of GFP+” value is on record?
The value was inactive: 41.8%.

With C[C@H]1[C@H](NC(=O)/C(=N\OC(C)(C)C(=O)O)c2csc(N)n2)C(=O)N1S(=O)(=O)O [Aztreonam] as the compound, how does the “percentage of GFP+” value read?
The value was inactive: 43.8%.

For COc1cc(N2CCC(N(C)C)CC2)ccc1Nc1ncc(Cl)c(Nc2ccccc2P(C)(C)=O)n1, which “percentage of GFP+” value is on record?
Its value is inactive: 39.9%.

Cn1cc(-c2ccc3nnc(Sc4ccc5ncccc5c4)n3n2)cn1 was tested. Which “percentage of GFP+” value did it give?
The value was inactive: 45.6%.

O=C(Nc1ccccc1)c1cc([N+](=O)[O-])ccc1Cl [2-chloro-5-nitro-N-phenylbenzamide] was tested. Which “percentage of GFP+” value did it give?
Its value is inactive: 32.7%.

For O=C(/C=C/c1ccc(O)c(O)c1)OCCc1ccccc1 [Caffeic Acid Phenethyl Ester], which “percentage of GFP+” value is on record?
Its value is inactive: 37.6%.

With CN(C)Cc1ccc(-c2nc3cccc4c3n2CCNC4=O)cc1 as the compound, how does the “percentage of GFP+” value read?
Its value is inactive: 49.4%.

How did the “percentage of GFP+” value turn out when O=C1Cc2c([nH]c3ccc(Br)cc23)-c2ncccc2N1 [1-Azakenpaullone] was run?
Its value is inactive: 47.8%.

How did the “percentage of GFP+” value turn out when Cc1ccccc1-n1c(Cn2nc(-c3cccc(O)c3)c3c(N)ncnc32)nc2cccc(C)c2c1=O was run?
The value was inactive: 34.5%.

C#CCN[C@@H]1CCc2ccccc21 [Rasagiline] was tested. Which “percentage of GFP+” value did it give?
Its value is inactive: 43.2%.

Which “percentage of GFP+” value does the source give for CC1=C(CC(=O)O)c2cc(F)ccc2/C1=C\c1ccc(S(C)=O)cc1 (stereo not drawn) [Sulindac] here?
The value was inactive: 41.6%.

With CC(C)[C@@H](C)/C=C/[C@@H](C)[C@@H]1CC[C@H]2C3=CC=C4C[C@@H](O)CC[C@]4(C)[C@@H]3CC[C@@]21C [Ergosterol] as the compound, how does the “percentage of GFP+” value read?
The value was inactive: 48.5%.

Which “percentage of GFP+” value does the source give for CC1(C)O[C@@H]2C[C@H]3[C@@H]4CCC5=CC(=O)CC[C@]5(C)[C@@]4(F)[C@@H](O)C[C@]3(C)[C@]2(C(=O)CCl)O1 [Halcinonide] here?
Its value is inactive: 42.1%.

For CC1(C)CCC[C@]2(C)[C@H]3CC(=O)O[C@]3(C)CC[C@@H]12 [Sclareolide], which “percentage of GFP+” value is on record?
Its value is inactive: 45.5%.

How did the “percentage of GFP+” value turn out when C=CC(=O)N1CCCC(n2nc(-c3ccc(Oc4ccccc4)cc3)c3c(N)ncnc32)C1 (stereo not drawn) [Ibrutinib] was run?
The value was inactive: 34.1%.

For CS(=O)(=O)c1cccc(CNc2nc(Nc3ccc4c(c3)CCC(=O)N4)ncc2C(F)(F)F)c1, which “percentage of GFP+” value is on record?
Its value is inactive: 36%.

How did the “percentage of GFP+” value turn out when COc1ccc(C(=O)Nc2sc3c(c2C(N)=O)CCCC3)cc1OC was run?
Its value is inactive: 42.9%.

C=C1CC[C@H](O)C/C1=C/C=C1\CCC[C@]2(C)[C@@H]([C@H](C)CCCC(C)(C)O)CC[C@@H]12 [Calcidiol] was tested. Which “percentage of GFP+” value did it give?
The value was inactive: 28.3%.

Which “percentage of GFP+” value does the source give for Cc1c(N(C)C)c(=O)n(-c2ccccc2)n1C [Aminophenazone] here?
The value was inactive: 47.3%.

Clc1ccc(Nc2nnc(Cc3ccncc3)c3ccccc23)cc1 [Vatalanib] was tested. Which “percentage of GFP+” value did it give?
Its value is inactive: 43.4%.

How did the “percentage of GFP+” value turn out when CCOC(=O)Nc1cc(-c2ccc(C)c(NS(C)(=O)=O)c2)nn2c(C)nnc12 [Bromosporine] was run?
Its value is inactive: 35.6%.

How did the “percentage of GFP+” value turn out when CNC(=O)Nc1ccc(-c2nc(N3CC4CCC(C3)O4)c3cnn(C4CCC5(CC4)OCCO5)c3n2)cc1 was run?
The value was inactive: 39.2%.

With Nc1nc(Cl)nc2c1ncn2[C@@H]1O[C@H](CO)[C@@H](O)[C@@H]1F [Clofarabine] as the compound, how does the “percentage of GFP+” value read?
The value was inactive: 35.5%.

With CCn1cc(C(=O)O)c(=O)c2cc(F)c(N3CCN(C)CC3)cc21 [Pefloxacin] as the compound, how does the “percentage of GFP+” value read?
The value was inactive: 45.7%.

Which “percentage of GFP+” value does the source give for CC(C)[C@H](C(=O)Nc1ccc(C(=O)NO)cc1)c1ccccc1 here?
The value was active: 9.62%.

For O=C1NC(=O)C(c2ccccc2[N+](=O)[O-])=C1Nc1ccc(O)c(Cl)c1, which “percentage of GFP+” value is on record?
Its value is inactive: 46.9%.

Which “percentage of GFP+” value does the source give for CCN(CCCc1ccccc1)CCCc1ccccc1 [Alverine] here?
Its value is inactive: 50.1%.

Which “percentage of GFP+” value does the source give for CCCC(CCC)C(=O)O [Valproic Acid] here?
Its value is inactive: 43.5% and inactive: 41.1%.

For CCCN(CCC)CCc1cccc2c1CC(=O)N2 [Ropinirole], which “percentage of GFP+” value is on record?
Its value is inactive: 49.1%.

Which “percentage of GFP+” value does the source give for CCCNCC(O)COc1ccccc1C(=O)CCc1ccccc1 (stereo not drawn) [Propafenone] here?
The value was inactive: 39%.
